# Test results from PubChem BioAssay AID1159614 (National Center for Advancing Translational Sciences (NCATS), 2016).
# The whole screen tested about 45,000 compounds, of which about 65 (0.1%) were called active. The call rests on the fitted dose curve; in most records, active means well fitted activation curve with a large enough effect; inconclusive means small, poorly fitted or top-dose-only effect; inactive means no such curve, though single readings can be large or run the other way. The list shows a part of the results.
# Target: Galactocerebrosidase (Homo sapiens) (UniProt P54803)
# UniProt P54803, sequence (P54803 whole entry, looked up): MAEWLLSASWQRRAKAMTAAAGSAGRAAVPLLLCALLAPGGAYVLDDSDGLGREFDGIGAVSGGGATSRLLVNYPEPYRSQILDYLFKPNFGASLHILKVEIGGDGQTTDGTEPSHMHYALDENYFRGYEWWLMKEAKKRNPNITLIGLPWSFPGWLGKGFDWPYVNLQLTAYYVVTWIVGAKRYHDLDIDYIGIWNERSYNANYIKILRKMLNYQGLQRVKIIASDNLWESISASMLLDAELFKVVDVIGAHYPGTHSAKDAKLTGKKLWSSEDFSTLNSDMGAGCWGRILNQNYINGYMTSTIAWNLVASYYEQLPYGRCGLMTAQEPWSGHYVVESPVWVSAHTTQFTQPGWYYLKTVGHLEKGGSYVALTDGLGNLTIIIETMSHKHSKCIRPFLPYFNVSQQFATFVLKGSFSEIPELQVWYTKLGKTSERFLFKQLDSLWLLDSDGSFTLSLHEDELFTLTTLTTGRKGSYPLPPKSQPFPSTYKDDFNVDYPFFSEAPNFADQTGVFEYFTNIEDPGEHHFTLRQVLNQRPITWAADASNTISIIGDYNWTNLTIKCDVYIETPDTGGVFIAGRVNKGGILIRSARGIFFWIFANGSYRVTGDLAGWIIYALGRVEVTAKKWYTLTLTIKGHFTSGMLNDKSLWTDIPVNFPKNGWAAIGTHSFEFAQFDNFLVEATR
# Experiment: A Novel Cell-Based Assay to Identify Small Molecules for B -Galactocerebrosidase; further: 0% is about no effect; nearly all actives have a fitted effect of over 65% in size
# Details: 145M-Twi-hGALC-G270D cells (Twitcher mouse brain line with human GALC G270D), HMU-beta-Gal fluorescence, 48 h; series mostly up to 57.5 µM; activation: at the top concentration
# Method in brief: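 Brain-derived Twitcher mouse 145M-Twi cells stably expressing human GALC-G270D or wild-type GALC, treated live, then residual GALC activity read by fluorescence of HMU-b-Gal substrate (0.1 mM final) in citrate-phosphate buffer pH 5.2 with sodium taurocholate. Signal increase indicates enhancement.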
row,SMILES,activation
1,COc1ccc(OC)c(CCNC(=O)c2cc3c(s2)-c2c(C)cccc2OC3)c1,inactive: -8.49%
2,Cc1ccc(-n2c(=O)c3sc4ccccc4c3n(CC(=O)NC3CCCC3)c2=O)cc1C,inactive: -13.3%
3,Cc1ccc(NC(=O)Cn2c(=O)n(Cc3ccccc3)c(=O)c3sc4ccccc4c32)cc1,inactive: -9.82%
4,Cc1ccc(Nc2c(-c3c[nH]c4ccccc34)nc3ccccn23)cc1,inactive: -13.7%
5,Cc1ccc2oc(=O)c3cnn(CC(=O)N4CCN(c5ccc(F)cc5)CC4)c3c2c1,inactive: -14.9%
6,CC(C)Oc1ccccc1-c1nc(SCC(=O)c2ccc(F)cc2)n[nH]1,inactive: -0.0033%
7,CCOc1ccc(CNC(=O)c2ccc3c(c2)c(C)c(C)n3Cc2ccccc2)cc1OC,inactive: -9.36%
8,CCS(=O)(=O)c1ncc(N(Cc2ccccc2)Cc2ccco2)c(C(=O)Nc2cccc(Cl)c2C)n1,inactive: -21.6%
9,COc1ccccc1C(=O)Nc1ccc2nc(SCC(=O)N(C)c3ccccc3)sc2c1,inactive: -2.97%
10,Cc1c(Cl)cccc1-c1ccc(CNCCSc2nnnn2-c2ccccc2)o1,inactive: -13.5%
11,CCOc1ccc(NC(=O)C(Cc2ccccc2)NS(=O)(=O)c2ccc3c(c2)oc(=O)n3C)cc1 (configuration not stated),inactive: 17.3%
12,O=C(CN1C(=O)C2(SCC(=O)N2c2cccc(Cl)c2)c2ccccc21)NCCc1ccccc1 (configuration not stated),inactive: -21.8%
13,CCOc1ccc(NC(=O)c2c(Nc3ccccc3C)sc(C(=O)c3ccccc3)c2N)cc1,inactive: -3.81%
14,CCN(CC)S(=O)(=O)c1ccc(NC(=O)CN(c2ccccc2)S(=O)(=O)N(C)C)cc1,inactive: -18.6%
15,Cc1ccc(-n2ncc(C(=O)N3CCN(c4cc(Cl)ccc4C)CC3)c2C2CCN(C(=O)OC(C)(C)C)CC2)cc1,inactive: -6.18%
16,Cc1ccc(C)c(Cn2c3ccccc3c3cnn(CC(=O)NC(C)CCc4ccccc4)c(=O)c32)c1 (configuration not stated),inactive: -17%
17,COc1ccc(CCNC(=O)c2ccc3c(c2)N(Cc2ccccc2)C(=O)c2ccccc2S3=O)cc1OC (configuration not stated),inactive: 6.07%
18,COC(=O)c1ccc(Cl)cc1NC(=O)Nc1nnc(N2CCCC2)s1,inactive: -19.1%
19,Cc1cccc(OCC(=O)Nc2ccccc2C(=O)OCc2cc(=O)n3ccsc3n2)c1,inactive: -19.1%
20,Cc1cccc(CNC(=O)Cn2c(-c3cccs3)cc3ccccc32)c1,inactive: 13.7%
21,COc1cccc(NC(=O)CN2C(=O)c3cccc4cccc2c34)c1,inactive: -8.96%
22,Cn1ncc2c(Nc3cc(C(F)(F)F)ccc3Cl)ncnc21,inactive: -11.7%
23,COC(=O)CSc1ncc2c(n1)-c1ccccc1N(Cc1ccc(Cl)cc1)S2(=O)=O,inactive: -36.8%
24,COc1ccc(CCn2c3c(c(=O)[nH]c2=O)C(NC(=O)c2ccc(Cl)cc2)(C(F)(F)F)C(=O)N3)cc1OC (configuration not stated),inactive: -11.2%

row,SMILES,activation
1,COc1ccc(CNc2ncnc3c2nc2n3CCCC2)cc1,inactive: 5.64%
2,COc1ccc2c(c1)c1c(c(=O)n(-c3ccccc3C)c(=O)n1Cc1cccc(C(F)(F)F)c1)n2C,inactive: -13.6%
3,CC(C)OC(=O)c1ccc(Cn2nnc3sc4c(c3c2=O)CCCC4)cc1,inactive: -7.03%
4,CC1CCN(C(=O)CSc2n[nH]c(-c3ccc(F)cc3)n2)CC1,inactive: -6.46%
5,CCc1ccc(-n2nnc(-c3nc(-c4cccs4)no3)c2N)cc1,inactive: -6.86%
6,CCCN(c1c(C)n(C)n(-c2ccccc2)c1=O)S(=O)(=O)c1ccc(C)cc1,inactive: -13.2%
7,O=C(Cn1ccnc1[N+](=O)[O-])NCCO,inactive: -10.5%
8,CC(NC(=O)c1ccc2c(c1)N(Cc1ccc(Cl)cc1)C(=O)CS2)c1ccccc1 (configuration not stated),inactive: -8.16%
9,CCN(c1cccc(C)c1)S(=O)(=O)c1cc(Br)cc2c1N(C(C)=O)C(C)C2 (configuration not stated),inactive: -12.1%
10,CC(=O)Nc1ccc(S(=O)(=O)NC2(C(F)(F)F)C(=O)Nc3c2c(=O)[nH]c(=O)n3-c2cccc(Cl)c2)cc1 (configuration not stated),inactive: -10.7%
11,CCOC(=O)c1cnc2cc(C(F)(F)F)ccc2c1Nc1ccc(F)cc1F,inactive: -25.1%
12,CCC(=O)N1CCc2cc(CNS(=O)(=O)c3cc(OC)ccc3OC)ccc21,inactive: -10.6%
13,Cc1ccc(S(=O)(=O)NCC2CCC(C(=O)NCCc3ccccc3)CC2)cc1 (configuration not stated),inactive: -15.3%
14,CCc1nc2ccc(C(=O)N3CCN(c4cc(Cl)ccc4C)CC3)cc2nc1CC,inactive: -15.1%
15,CC(C)(C)C(=O)Nc1ccc(-c2nc3ccc(NC(=O)C(C)(C)C)cc3[nH]2)cc1,inactive: -21.1%
16,Oc1ccc(Cl)cc1C1=Nc2ccccc2N=C(c2ccccc2)C1,inactive: 3.11%
17,Cc1ccc(CSc2nc3cccnc3n2Cc2ccc(C(=O)NCc3ccco3)cc2)cc1,inactive: -11%
18,O=C(c1ccc(F)cc1)c1cn(Cc2ccccc2F)c2cc3c(cc2c1=O)OCCO3,inactive: -17.8%
19,Cc1cccc(-c2nc(CN3CCCC(C(=O)N4CCN(c5cc(Cl)ccc5C)CC4)C3)c(C)o2)c1 (configuration not stated),inactive: -9.28%
20,COc1cccc(-n2c(SCc3cccc(C)c3)nc3c([nH]c4ccccc43)c2=O)c1,inactive: -9.23%
21,CCOCc1cc(CN2CCN(c3cccc(C(F)(F)F)c3)CC2)c(O)c2ncccc12,inactive: -12.2%
22,CCOc1ccc(-n2ccnc2SCC(=O)Nc2cc(C)ccc2C)cc1,inactive: -11.6%
23,O=C(C1CCC1)N1CCCc2cc(S(=O)(=O)N3CCN(c4cccc(Cl)c4)CC3)ccc21,inactive: -17.1%
